Here are results for 54 sequences from paper PMC7819943, “Rice protein-binding microarrays: a tool to detect cis-acting elements near promoter regions in rice”.

The list shows a part of the results.

The experiment deals with T1, OsWOX13 (Oryza sativa, UniProt Q5QMM3 1-267).
T1 sequence: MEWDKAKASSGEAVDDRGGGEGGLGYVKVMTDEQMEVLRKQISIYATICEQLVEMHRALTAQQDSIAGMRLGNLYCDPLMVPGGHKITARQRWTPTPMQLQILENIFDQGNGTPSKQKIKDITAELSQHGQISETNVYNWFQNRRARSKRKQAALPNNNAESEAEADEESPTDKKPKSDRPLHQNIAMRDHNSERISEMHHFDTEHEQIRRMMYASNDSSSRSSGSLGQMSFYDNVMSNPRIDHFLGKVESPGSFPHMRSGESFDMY
As to the kind of experiment: protein-binding microarray (RPBM); PBS, 2% BSA, 51.3 ng/ul salmon testes DNA, 50 uM zinc acetate, 200 nM TF, 25 C, 1 h; high values mean tight binding. The following applies: protein: recombinant; tags: N-terminal polyhistidine and DsRed monomer fusion (pET32a); label: CyDye5-dUTP incorporated in the synthesized complementary strand; 3' TTTTT single-stranded linker to array surface; dsDNA, one strand shown. In outline: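 An Axon 4000B scanner gave the binding signal as per-feature fluorescence intensity in arbitrary units. This followed washing of a custom Agilent array that had been incubated for 1 h at 25 °C with 200 nM protein in PBS, 2% BSA, salmon testes DNA and 50 µM zinc acetate. The proteins were transcription factors fused at the N-terminus to polyhistidine and DsRed, expressed in E. coli BL21-CodonPlus and purified on Ni–NTA.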
With “CTGCAATTACCAGCATAAATCAATCAATCGGAAAAGCAGACGGAGTCACCTAGTGCAG”, the binding signal was 30500 fluorescence intensity (a.u.).

Regarding “GTGCTTTGTACTGATCTGATTGCCTTCGCCTCATCATAATCGGAGTCACCTAGTGCAG”, the binding signal was 5280 fluorescence intensity (a.u.).

With “ATCACTGTATACGAATAAATTGATTACTTGTAATTGATAACGGAGTCACCTAGTGCAG”, the binding signal is 14300 fluorescence intensity (a.u.).

For “TAATGATTAGAGACTATGTTGTCTCTAACTGTTGTAAGATCGGAGTCACCTAGTGCAG”, the binding signal was 26000 fluorescence intensity (a.u.).

For the sequence “CAAATCAGATGTGGACTTGATTTAGTCTTTTAATTTGTTACGGAGTCACCTAGTGCAG”, the binding signal is 6510 fluorescence intensity (a.u.).

As for “GAAAGAGTAATTACATCTAGAGACTGAATGCCTCATTGCCCGGAGTCACCTAGTGCAG”, the binding signal is 9180 fluorescence intensity (a.u.).

On to “CCTAATTGCATGATAGATGACAGTTAAGGCAGCCCAGCCACGGAGTCACCTAGTGCAG”, for which the binding signal is 41100 fluorescence intensity (a.u.).

Take “CTGCCACTCAATCAAATCAACCAGATAATATTTCCAAACCCGGAGTCACCTAGTGCAG”: the binding signal was 14900 fluorescence intensity (a.u.).

“TTTATGTCAAACGTTTGACAGTCCATCTTATTTACAAATTCGGAGTCACCTAGTGCAG”: the binding signal was 3210 fluorescence intensity (a.u.).

Turning to “GGCTTAATAGGTAACGTTTTCGAAGGATAGAGACAAGTTGCGGAGTCACCTAGTGCAG”, the binding signal was 9910 fluorescence intensity (a.u.).

“TATTCAATATTAGATTTAAATGTAACTATTTTAGTATTGTCGGAGTCACCTAGTGCAG”: the binding signal was 3630 fluorescence intensity (a.u.).

With “GTTAAGTCAAGTTTCCAATCAGCAGAATGTTCCCAGTGGTCGGAGTCACCTAGTGCAG”, the binding signal was 8800 fluorescence intensity (a.u.).

As to “TCTGATTGTGAGTCTACGTAGACAAGTATGCAACTAGCACCGGAGTCACCTAGTGCAG”, the binding signal is 22300 fluorescence intensity (a.u.).

On to “GGAGATTGACACGTTGGTCTACGTGCCTATGCGTGTGTTCCGGAGTCACCTAGTGCAG”, for which the binding signal was 55600 fluorescence intensity (a.u.).

Turning to “CAGCAAGCATGATTGAGAATAGTAAAGGGATGACACGGCACGGAGTCACCTAGTGCAG”, the binding signal is 19900 fluorescence intensity (a.u.).

As for “CTTACTTAATTGCAGCGAGATAATTTAGAATTGATGCCTTCGGAGTCACCTAGTGCAG”, the binding signal was 38100 fluorescence intensity (a.u.).

“ACCTTGACGAAATCATTTGTCTTCTTTTGGAGAACTTTTGCGGAGTCACCTAGTGCAG”: the binding signal is 7260 fluorescence intensity (a.u.).

For “GTAATCACGTAATCACGCCCAGCATCCAGAACGTTCCTCCCGGAGTCACCTAGTGCAG”, the binding signal was 6780 fluorescence intensity (a.u.).

Take “CCCTTGATTTACTTGATAATTTGTTATAGGTCCCTATCCCCGGAGTCACCTAGTGCAG”: the binding signal was 53400 fluorescence intensity (a.u.).

For “AATTTACCCTCATTAATTCAATTTAGCTCTGATGTGCATGCGGAGTCACCTAGTGCAG”, the binding signal was 3240 fluorescence intensity (a.u.).

As for “GGTAGATATCAATCACCCTCAATGCAAAACCAATCTCTTTCGGAGTCACCTAGTGCAG”, the binding signal was 21500 fluorescence intensity (a.u.).

Turning to “TACTATTAATCAATCACATATAATTAACAATTAGTGTGATCGGAGTCACCTAGTGCAG”, the binding signal was 41200 fluorescence intensity (a.u.).

On to “GCACCCAAGTATAATTAACAAATTTATATTTCCTTTATATCGGAGTCACCTAGTGCAG”, for which the binding signal is 5070 fluorescence intensity (a.u.).

For the sequence “ATCAAATTGCCAAGTAAGCGCCACGTTATTACCAAGACTGCGGAGTCACCTAGTGCAG”, the binding signal was 6970 fluorescence intensity (a.u.).

On to “CTAATTTATTCCCTGCAACATTCCATTCCGTTAACTTGCACGGAGTCACCTAGTGCAG”, for which the binding signal is 3610 fluorescence intensity (a.u.).

Turning to “TATTGTATTGATTGAGGTGATTCATGATAACCATGAAATACGGAGTCACCTAGTGCAG”, the binding signal was 12400 fluorescence intensity (a.u.).

Regarding “CTTGACTGGGAGTGTCAGATCAAAGACGATGGATGATTGCCGGAGTCACCTAGTGCAG”, the binding signal was 24000 fluorescence intensity (a.u.).

As for “TGTTGACAGAAAATCCCACCTCTCATCTTTCAAAATTTAGCGGAGTCACCTAGTGCAG”, the binding signal was 8540 fluorescence intensity (a.u.).

Take “TTGATTGCCAGCTGCACTCTGCATCCCAAGAAGACCTTGTCGGAGTCACCTAGTGCAG”: the binding signal was 42400 fluorescence intensity (a.u.).

Regarding “GCCAGGATTAATTAGATGTCCTCGTTAAGGATGAGGAAAACGGAGTCACCTAGTGCAG”, the binding signal is 11200 fluorescence intensity (a.u.).

In the case of “CTTGATTAGAATGTTTAATAACTTGTATCCGTCATGCCTGCGGAGTCACCTAGTGCAG”, the binding signal was 60200 fluorescence intensity (a.u.).

Consider “TTTTAGATTGGACGGCTGGTAAAGCAGCATGTGCTTGCTGCGGAGTCACCTAGTGCAG”, for which the binding signal is 33300 fluorescence intensity (a.u.).

“GAAAATAGTGTTAAATTATCAAATCTCTCAGTTAGGAGGACGGAGTCACCTAGTGCAG”: the binding signal is 6320 fluorescence intensity (a.u.).

As for “TTCAACAGTTAATTTAGGCTATTTTGGCTTCAATCCAAACCGGAGTCACCTAGTGCAG”, the binding signal was 4960 fluorescence intensity (a.u.).

With “ATCTTCCAATCTAAAAGGGATTGAGTAGTATATATATATCCGGAGTCACCTAGTGCAG”, the binding signal was 6320 fluorescence intensity (a.u.).

On to “CACAAATTACTTTTCATTTGCGAATATACCGTTTTGCTTACGGAGTCACCTAGTGCAG”, for which the binding signal is 21000 fluorescence intensity (a.u.).

“TCTGATTGCAATCATTCTTGAATTCTGATACATATTGGATCGGAGTCACCTAGTGCAG”: the binding signal is 60300 fluorescence intensity (a.u.).

As to “CATCATGATTCAGATAATTAAATGTCTTCTTTTAACTTGGCGGAGTCACCTAGTGCAG”, the binding signal is 12600 fluorescence intensity (a.u.).

“TCTTCATAATTTGGAACCGATAGAGTAGTAGTTCATTCTGCGGAGTCACCTAGTGCAG”: the binding signal is 4030 fluorescence intensity (a.u.).

In the case of “GCGAAATTAATCTTTTGGTTGTTTCTACCTTTGCTCTGATCGGAGTCACCTAGTGCAG”, the binding signal is 5540 fluorescence intensity (a.u.).

“CGGCTCCAATTATCTCCATCTCTCTGTCTCCGTATTGACCCGGAGTCACCTAGTGCAG”: the binding signal was 15500 fluorescence intensity (a.u.).

Take “CCTCCCCAATTTACTCCCCTATTTACTCCCTCCACCTCCCCGGAGTCACCTAGTGCAG”: the binding signal is 3190 fluorescence intensity (a.u.).

In the case of “TGGATGATTTTCGGACGTTAGATTTGATGAATAAGGTCCGCGGAGTCACCTAGTGCAG”, the binding signal is 11000 fluorescence intensity (a.u.).

On to “ATATATATATATAATTTGCTTAATTCCGAGTCCATATGAGCGGAGTCACCTAGTGCAG”, for which the binding signal is 7060 fluorescence intensity (a.u.).

Turning to “TTTGTGATTAAGCTCTTGGTCTCGTCTCCGCGAGCTCAGCCGGAGTCACCTAGTGCAG”, the binding signal was 5540 fluorescence intensity (a.u.).

Regarding “TTTATATGTACGTAATTAATTTAGATGAGTGATGAAGATACGGAGTCACCTAGTGCAG”, the binding signal was 14300 fluorescence intensity (a.u.).

For the sequence “CACAAATCATAACTGCGGAAGCAACCATAATTTATTGCCCCGGAGTCACCTAGTGCAG”, the binding signal was 8930 fluorescence intensity (a.u.).

Regarding “TTGTTTGAAAATTAAGATGATTGAAGAGTGAACCTTATTACGGAGTCACCTAGTGCAG”, the binding signal is 23700 fluorescence intensity (a.u.).

Regarding “ACCCAATTACGGAGTAGAGTTTAGCAGTCCCTAAGTAAGCCGGAGTCACCTAGTGCAG”, the binding signal is 3490 fluorescence intensity (a.u.).

As for “AGTGATACATCACAAAATTACATATACAAATTTATGGTAGCGGAGTCACCTAGTGCAG”, the binding signal is 3400 fluorescence intensity (a.u.).

Regarding “AACGATCTGCAGCAAGTTAATTAATTTTATGTGCGTCGATCGGAGTCACCTAGTGCAG”, the binding signal is 4580 fluorescence intensity (a.u.).

Take “AATATCTAATTTTGACTGTAGATATCTACTCAAATATTGTCGGAGTCACCTAGTGCAG”: the binding signal is 4740 fluorescence intensity (a.u.).

For the sequence “TTAGAGTATATGATATAATAATCAATCATATCTCAATCCTCGGAGTCACCTAGTGCAG”, the binding signal is 7620 fluorescence intensity (a.u.).

Turning to “AGTTGATAAATTTCAGAAAATTTTGATGACAAAGCAAAGCCGGAGTCACCTAGTGCAG”, the binding signal was 12800 fluorescence intensity (a.u.).
